About 360 (36%) of roughly 1,000 compounds were called active.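 Rule for the calls: active = Fitted curve of melting temperature shift crosses the 1.0 threshold at or below the sample's highest valid tested concentration; inconclusive = Flat fit with activity 30 to 70, or invalid fit; inactive = Opposite direction, flat within 30, or no crossing.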 The list lacks most of the strong results. Square brackets hold non-standard residues; d marks the D form. Peptide text beside a SMILES is read from it. * marks the point of attachment. ξ: configuration not given here. ξArg(NO2) = N=C(NCCCC(N)C(=O)O)N[N+](=O)[O-]; Bz = O=C(c1ccccc1)*
The molecules below were run against Fibroblast growth factor 22 (Homo sapiens) (UniProt Q9HCT0) (assay: binders of human FGF22 protein, dose response, FGF22 synaptogenesis inhibitor project, biophysical, thermal shift, cherry-pick (AID 687022; note: reference of the scale not given here)). Details: recombinant FGF22 thermal shift, SYPRO orange melting; at 38 µM (top of the series) unless noted.
Chain of UniProt Q9HCT0 (Q9HCT0 whole entry, looked up): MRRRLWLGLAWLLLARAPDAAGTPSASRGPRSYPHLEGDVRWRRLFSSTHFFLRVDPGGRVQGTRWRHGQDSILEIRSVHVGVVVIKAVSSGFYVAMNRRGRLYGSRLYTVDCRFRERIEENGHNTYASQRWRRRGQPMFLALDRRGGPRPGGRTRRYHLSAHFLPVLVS

**Q.** Which Tm shift activity does the source give for CC(=O)Nc1ccc(S(=O)(=O)N2Cc3ccccc3-n3nncc3C2)cc1 here?
**A.** inactive: -0.297%

**Q.** C/C=C/c1ccc([C@@H]2[C@H]3CN(C(=O)Cc4ccncc4)CCCCN3[C@H]2CO)cc1 was tested. Which Tm shift activity did it give?
**A.** inactive: -0.193%

**Q.** How did the Tm shift activity turn out when CN(C)Cc1c[nH]c2ccccc12 was run?
**A.** inactive: -0.319%

**Q.** How did the Tm shift activity turn out when CC=Cc1ccc2n(c1=O)C[C@H]1[C@H](CO)[C@@H](C(=O)N(C)C)N[C@@H]21 (mixture of isomers) was run?
**A.** inactive: -0.052%

**Q.** For COc1cccc(-c2ccc([C@@H]3[C@@H](CO)N4CCCCN(C(=O)Cc5ccncc5)C[C@@H]34)cc2)c1, which Tm shift activity is on record?
**A.** inactive: -0.031% [at 42 µM]

**Q.** Which Tm shift activity does the source give for N/C(=N\[N+](=O)[O-])NCCCC(NC(=O)CNC(=O)c1ccccc1)C(=O)O (configuration not stated) (Bz-Gly-[ξArg(NO2)]-OH) here?
**A.** inactive: -0.126%

**Q.** How did the Tm shift activity turn out when Cc1cc(OCC(=O)NC(Cc2ccc(Cl)cc2)C(=O)O)c2c3c(c(=O)oc2c1)CCC3 (configuration not stated) was run?
**A.** inactive: 14.7% [at 19.5 µM]

**Q.** How did the Tm shift activity turn out when OC(CNCCc1c[nH]c2ccccc12)c1ccccc1 (configuration not stated) was run?
**A.** inactive: -0.172%

**Q.** With O=C(Nc1ccccc1)c1cccn(Cc2ccccc2)c1=O as the molecule, how does the Tm shift activity read?
**A.** inactive: 0.189%

**Q.** With Cc1ccc(S(=O)(=O)N(C)C[C@H]2Oc3cc(Br)ccc3S(=O)(=O)N([C@H](C)CO)C[C@@H]2C)cc1 as the molecule, how does the Tm shift activity read?
**A.** inactive: 0.593%

**Q.** O=C(c1cccc2ccccc12)C1CCCN(Cc2ccon2)C1 (configuration not stated) was tested. Which Tm shift activity did it give?
**A.** inactive: -0.15%

**Q.** For O=C(NCCN1CCC2(CC1)C(=O)NCN2c1ccccc1)c1ccc2ccccc2c1, which Tm shift activity is on record?
**A.** inactive: -0.261%

Source: PubChem BioAssay AID687022 (Broad Institute, 2013)
